The values below come from ChEMBL document CHEMBL1156829.

Over roughly 5,400 compounds, “IFI” has its median near 2; the highest 2% begin near 22. The list shows a part of the results.

This test is described as follows: NOVARTIS: Inhibition Frequency Index (IFI) - the number of HTS assays where a compound showed > 50% inhibition/induction, expressed as a percentage of the number of assays in which the compound was tested. Format: functional.
On to `COc1ccccc1-n1c(S)nnc1-c1ccccc1O`, for which the IFI came out at 3.57%.
The value for `COc1ccc([C@@H]2Nc3ccc(C(C)=O)cc3[C@@H]3C=CC[C@@H]32)cc1[N+](=O)[O-]` was 0%; that for `COc1ccccc1NC(=O)CCN1CCCC(C)C1` (stereo unspecified) was 0%.
The value for `COc1cc(/C=C2/SC(=Nc3ccccc3)NC2=O)ccc1OCc1ccccc1F` was 1.14%; that for `COC(=O)c1c(OCc2ccc(F)cc2)cc(=O)n2c1CCN(Cc1ccccc1)CC2` was 0%; that for `Cc1cccc(NC(=S)NC2CC3CCCC(C2)N3CCc2ccccc2)c1` (stereo unspecified) was 2.56%.
Under `CC(=O)c1c(C)oc2ccc(NS(=O)(=O)c3cccc(C(=O)O)c3)cc12` stands 0%; under `O=c1[nH]c2cc(Cl)c(Br)nc2[nH]1`, 0%; under `CCN1/C(=C/c2cccc[n+]2C)C=Cc2ccc(C)cc21`, 7.79%.
As for `CN(C)c1nc(Cl)nc(N(C#N)CCOc2ccccc2)n1`, the IFI is 0%.
As to `COc1cc(C(=O)N2N=C(c3c(-c4ccccc4)c4cc(Br)ccc4[nH]c3=O)CC2c2cccc([N+](=O)[O-])c2)cc(OC)c1OC` (stereo unspecified), the IFI came to 1.11%.
On to `COc1cc2nc(NCCN3CCOCC3)n3nc(-c4ccccc4)nc3c2cc1OC`, for which the IFI amounted to 0%.
`CCOC(=O)C1=C(C)NC2=C(C(=O)CC(c3ccc(OC)c(OC)c3)C2)C1c1cccc(Cl)c1` (stereo unspecified) yielded an IFI of 3.53%.
Molecule `O=C(Nc1ccc(C2=NCCN2)cc1)c1ccc(-c2ccc(C(=O)Nc3ccc(C4=NCCN4)cc3)cc2)cc1` gave an IFI of 4.4%.
Under `CCCCOc1nc(-c2ccc(OC)cc2)n(C(=O)c2ccccc2OC)n1` stands 7.41%; under `O=[N+]([O-])c1ccc(S(=O)(=O)N2CCN(C(=S)NCc3ccccc3)CC2)cc1`, 0%.
In the case of `Cc1cc(C)c(S(=O)(=O)N2CCC(NC(=O)c3ccccc3)CC2)c(C)c1`, the IFI is 3.8%.
The value for `CCOc1cccc(Nc2c3c(nc4ncnn24)CCC3)c1` was 0%; that for `O=C(Nc1cc(Cl)cc(Cl)c1)Nc1cccc(C(F)(F)F)c1` was 17.3%; that for `CCC(C)(C)C1CCc2sc3ncnc(NN=Cc4c(Cl)cccc4Cl)c3c2C1` (stereo unspecified) was 4.41%.
Consider `CCC(=O)N=c1sc2cc([N+](=O)[O-])ccc2n1CCOC`, for which the IFI was 0%.
Molecule `CCNc1nc(OC)nc(Oc2ccc(=O)n(-c3ccccc3)n2)n1` yielded an IFI of 0%.
`COc1ccc(-c2nc(-c3ccc(-c4[nH]c(-c5ccc(OC)cc5)nc4-c4ccccc4)cc3)c(-c3ccccc3)[nH]2)cc1` registered an IFI of 0%.
Under `O=C1CN(C(=O)CCC2CCCCC2)C(c2ccccc2)c2cc(F)ccc2N1` (stereo unspecified) stands 5.88%; under `CCOC(=O)c1ccc(N(C(=O)Cc2c[nH]c3ccccc23)C(C(=O)NC2CCCCC2)c2cccc(OC)c2OC)cc1` (stereo unspecified), 1.92%; under `O=C(Nc1ccc(-c2nc3ccc(NC(=O)c4cccc5ccccc45)cc3[nH]2)cc1)c1cccc2ccccc12`, 0%.
